{"source": "patent US20220389066A1", "about": "(Affibody, published 2022)", "key": {"[1]": {"target": "T1, human serum albumin (HSA) (human, UniProt P02768 25-609)", "T1 construct": "Immobilized on sensor chips to capture ABD (PP013) fusions", "T1 sequence (P02768 25-609 limits assumed)": "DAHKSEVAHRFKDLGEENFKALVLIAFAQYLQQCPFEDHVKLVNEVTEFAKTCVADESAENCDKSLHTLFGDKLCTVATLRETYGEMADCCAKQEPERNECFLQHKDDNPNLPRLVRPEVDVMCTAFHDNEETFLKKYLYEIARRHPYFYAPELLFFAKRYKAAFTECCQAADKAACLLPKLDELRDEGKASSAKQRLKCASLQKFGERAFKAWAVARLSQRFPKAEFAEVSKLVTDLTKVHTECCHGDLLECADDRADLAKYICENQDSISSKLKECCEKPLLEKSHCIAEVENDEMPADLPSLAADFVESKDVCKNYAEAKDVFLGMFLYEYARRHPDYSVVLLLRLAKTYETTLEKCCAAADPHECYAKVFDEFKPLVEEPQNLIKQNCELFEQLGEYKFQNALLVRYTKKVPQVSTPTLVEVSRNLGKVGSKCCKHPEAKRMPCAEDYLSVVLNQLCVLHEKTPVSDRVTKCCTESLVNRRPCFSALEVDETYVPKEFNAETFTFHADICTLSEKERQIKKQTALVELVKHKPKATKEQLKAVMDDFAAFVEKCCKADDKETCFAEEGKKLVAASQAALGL", "assay": "QCM (Attana A200); capture on immobilized HSA"}, "[2]": {"target": "tumor necrosis factor (TNF) (UniProt P01375 77-233)", "sequence (P01375 77-233 limits assumed)": "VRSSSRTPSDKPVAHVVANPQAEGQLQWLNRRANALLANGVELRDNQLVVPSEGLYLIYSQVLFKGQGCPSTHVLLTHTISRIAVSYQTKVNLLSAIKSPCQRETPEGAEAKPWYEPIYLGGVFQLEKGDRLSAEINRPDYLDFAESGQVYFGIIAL", "assay": "SPR (Biacore 2000); ZZA4263 captured on immobilized HSA, analyte injected", "protocol": "(§1) HSA (Albucult®, Novozyme) was diluted to 10 μg/ml in acetate, pH 4.0, and immobilized onto a CM5 sensor chip using a Biacore 2000 instrument. Immobilization was performed by amine chemistry, using amine coupling kit, according to the manufacturer's instructions. The first surface of each chip was activated and deactivated for use as a reference cell (blank surface) during analyte injections. HBS-EP was used as running buffer, supplemented with 1.5 mM DTT when analyzing the binding to HMGB1(red). ZZA4263 was injected at a concentration of 100 nM for 4 minutes over the HSA and the reference sensor chip surfaces at a constant flow rate of 30 μl/min. This was followed by 4 minutes' injection of 0, 8.3, 25, 75, 225 and 675 nM of HMGB1(red), HMGB1(disulfide), HMGB2 (Biorbyt, cat. no. orb180287), HMGB3 (Biorbyt, cat. no. orb180288), SP100 (Biorbyt, cat. no. orb169341), TNF (R&D Systems, cat. no. 210-TA), IL-6 (R&D Systems, cat. no. 206-IL) and IL-1β (R&D Systems, cat. no. 201-LB/CF), respectively. The proteins were allowed to dissociate for 20 minutes before the chip surfaces were regenerated by two 10 second pulses using 10 mM HCl. The reference surface and the buffer sample were subtracted from all curves. The buffer sample was subtracted to adjust for the dissociation of ZZA4263 from HSA. All curves were fitted to a kinetic 1:1 Langmuir model in the BIA Evaluation software to estimate the binding properties (kₐ, kd and KD).\n(§2) ZZA4263 was injected and captured on a surface with immobilized HSA followed by concentration series of HMGB1(red), HMGB1(disulfide), HMGB2, HMGB3, SP100, TNF, IL-6 and IL-1β. The highly homologous human proteins HMGB2, HMGB3, SP100 all bind to ZZA4263, although with 17-550 times lower affinity compared to HMGB1(red). No significant binding was detected to any of the other tested proteins involved in the HMGB1 signaling pathway (TNF, IL-6 and IL-1β)."}, "interleukin-6 (IL-6)": {"target": "T2, interleukin-6 (IL-6) (UniProt P05231 29-212)", "T2 sequence (looked up)": "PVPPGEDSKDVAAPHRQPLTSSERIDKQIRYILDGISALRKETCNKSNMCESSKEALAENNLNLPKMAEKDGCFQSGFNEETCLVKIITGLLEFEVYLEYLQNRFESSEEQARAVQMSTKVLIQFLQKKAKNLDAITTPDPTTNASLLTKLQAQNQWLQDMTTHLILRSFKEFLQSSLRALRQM", "assay": "SPR (Biacore 2000); ZZA4263 captured on immobilized HSA, analyte injected", "protocol": "as §1, §2"}, "interleukin-1β (IL-1β)": {"target": "T3, interleukin-1β (IL-1β) (UniProt P01584 117-269)", "T3 sequence (looked up)": "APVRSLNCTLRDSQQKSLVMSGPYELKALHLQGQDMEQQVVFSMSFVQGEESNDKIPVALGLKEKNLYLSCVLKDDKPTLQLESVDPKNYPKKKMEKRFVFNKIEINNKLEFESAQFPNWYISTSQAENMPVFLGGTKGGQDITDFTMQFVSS", "assay": "SPR (Biacore 2000); ZZA4263 captured on immobilized HSA, analyte injected", "protocol": "as §1, §2"}, "[3]": {"target": "T4, HMGB1(disulfide), disulfide linked form of full-length HMGB1 (HMGB1C23-C45C106h) (rat, UniProt P63159 1-215, disulfide C23-C45; C106 reduced)", "T4 construct": "unlabelled in Biacore and Attana; also called b-HMGB1(disulfide)", "T4 sequence": "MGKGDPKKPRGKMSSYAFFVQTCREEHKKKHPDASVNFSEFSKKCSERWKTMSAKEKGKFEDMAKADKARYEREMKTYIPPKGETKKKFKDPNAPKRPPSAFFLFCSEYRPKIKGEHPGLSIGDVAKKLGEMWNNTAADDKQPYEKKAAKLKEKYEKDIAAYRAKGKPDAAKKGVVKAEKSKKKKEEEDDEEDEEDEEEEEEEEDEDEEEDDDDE", "assay": "QCM (Attana A200); polypeptide captured on HSA, HMGB1(disulfide) injected; 1:1 or 1:2 model, average KD", "protocol": "(§3) Binding analysis: The Attana A200® biosensor was used to characterize interactions between the dimeric polypeptides (SEQ ID NO:38-48) and HMGB1(red) under reducing conditions and/or HMGB1(disulfide) under non-reducing conditions. The monomeric ZA3812 (SEQ ID NO:35) was included for comparison. The experiment was performed as a capture assay, in which HSA was immobilized on Attana's sensor chip Low-NonSpecific-Binding (LNB). Immobilization was performed using amine coupling. The instrument has two sensor surfaces and HSA was immobilized on both surfaces. Around 110 Hz of HSA was stably immobilized on the surfaces.\n(§4) In the kinetic experiment, HBS-EP+/−2 mM DTT was used as running buffer and the flow rate was 25 μl/min at 22° C. In each cycle, one polypeptide was tested against one concentration of HMGB1. […] The analyte HMGB1(reduced) was diluted in HBS-EP+2 mM DTT within a concentration range of 1.33 to 21.4 μg/ml, and the analyte HMGB1(disulfide) was diluted in HBS-EP buffer within a concentration range of 0.62 to 10 μg/ml. Both analytes were subsequently injected for 84 s over both channel A and B, where channel B was used as a blank surface for curve subtraction. Buffer injections were also made for surface subtractions. After dissociation, the surfaces were regenerated with a 30 s injection of 100 mM HCl followed by a 30 s injection of 20 mM NaOH. Data was collected by Attester Software and subsequently processed in the Evaluation Software. To calculate the kinetic parameters (kₐ and kd) and affinity constant (KD), the experimental data were fitted using a 1:1 or a 1:2 binding model.\n(§5) Binding analysis of dimeric polypeptides targeting HMGB1: The interactions of a set of dimeric polypeptides, as well as one monomeric polypeptide, with HMGB1(reduced) and/or HMGB1(disulfide) were analyzed using an Attana A200® biosensor instrument by injecting various concentrations of HMGB1 over a surface containing captured polypeptides in fusion with ABD bound by immobilized HSA."}, "[4]": {"target": "T4, HMGB1(disulfide), disulfide linked form …", "assay": "QCM (Attana A200); polypeptide captured on HSA, HMGB1(disulfide) injected; 1:1 or 1:2 model, relevant kd (most represented)", "protocol": "as §3, §4, §5"}}, "data": [{"binder": "ZZA4263, Z(boxB)-L2-Z(boxA)-ABD (designed binder, Heterodimer of ZH27 and ZH32 with PP013) AEAKYAKEAWLAEQEIWQLPNLTEAQFQAFILKLIDDPSQSSELLSEAKKLNDSQAPKGAPGGGGSTSAEAKYAKEDWDAFWEIIWLPNLTDAQQRAFIYKLEDDPSQSSELLSEAKKLNDSQAPKASGSLAEAKEAANAELDSYGVSDFYKRLIDKAKTVEGVEALKDAILAALP", "values": [{"measurement": "binding result", "setting": "[1]", "result": "binds"}, {"measurement": "binding result", "setting": "[2]", "result": "no binding (tested: 675 nM)"}, {"measurement": "binding result", "setting": "interleukin-6 (IL-6)", "result": "no binding (tested: 675 nM)"}, {"measurement": "binding result", "setting": "interleukin-1β (IL-1β)", "result": "no binding (tested: 675 nM)"}, {"measurement": "Kd", "setting": "[3]", "result": 7.6, "unit": "nM"}, {"measurement": "koff", "setting": "[4]", "result": 0.00095, "unit": "s⁻¹"}]}, {"binder": "ZA3812 ([ZH 27]-ASGS-PP013) (designed binder) AEAKYAKEDWDAFWEIIWLPNLTDAQQRAFIYKLEDDPSQSSELLSEAKKLNDSQAPKASGSLAEAKEAANAELDSYGVSDFYKRLIDKAKTVEGVEALKDAILAALP", "values": [{"measurement": "Kd", "setting": "[3]", "result": 130, "unit": "nM"}, {"measurement": "koff", "setting": "[4]", "result": 0.00048, "unit": "s⁻¹"}]}]}
